From article PMC4336329 (PLoS ONE, 2015) come the findings set out here.

Each structure is given as a SMILES string. About 2,200 (0.71%) of roughly 310,000 compounds showed an effect of 50% or more. The effect is printed as a negative number. The list shows a part of the results.

This experiment deals with human ether-à-go-go-related gene (hERG) potassium channel (human, UniProt Q12809). The experiment can be described thus: primary screen, population patch clamp on CHO cells stably expressing hERG.
human ether-à-go-go-related gene (hERG) potassium channel, sequence (Q12809 whole entry, looked up): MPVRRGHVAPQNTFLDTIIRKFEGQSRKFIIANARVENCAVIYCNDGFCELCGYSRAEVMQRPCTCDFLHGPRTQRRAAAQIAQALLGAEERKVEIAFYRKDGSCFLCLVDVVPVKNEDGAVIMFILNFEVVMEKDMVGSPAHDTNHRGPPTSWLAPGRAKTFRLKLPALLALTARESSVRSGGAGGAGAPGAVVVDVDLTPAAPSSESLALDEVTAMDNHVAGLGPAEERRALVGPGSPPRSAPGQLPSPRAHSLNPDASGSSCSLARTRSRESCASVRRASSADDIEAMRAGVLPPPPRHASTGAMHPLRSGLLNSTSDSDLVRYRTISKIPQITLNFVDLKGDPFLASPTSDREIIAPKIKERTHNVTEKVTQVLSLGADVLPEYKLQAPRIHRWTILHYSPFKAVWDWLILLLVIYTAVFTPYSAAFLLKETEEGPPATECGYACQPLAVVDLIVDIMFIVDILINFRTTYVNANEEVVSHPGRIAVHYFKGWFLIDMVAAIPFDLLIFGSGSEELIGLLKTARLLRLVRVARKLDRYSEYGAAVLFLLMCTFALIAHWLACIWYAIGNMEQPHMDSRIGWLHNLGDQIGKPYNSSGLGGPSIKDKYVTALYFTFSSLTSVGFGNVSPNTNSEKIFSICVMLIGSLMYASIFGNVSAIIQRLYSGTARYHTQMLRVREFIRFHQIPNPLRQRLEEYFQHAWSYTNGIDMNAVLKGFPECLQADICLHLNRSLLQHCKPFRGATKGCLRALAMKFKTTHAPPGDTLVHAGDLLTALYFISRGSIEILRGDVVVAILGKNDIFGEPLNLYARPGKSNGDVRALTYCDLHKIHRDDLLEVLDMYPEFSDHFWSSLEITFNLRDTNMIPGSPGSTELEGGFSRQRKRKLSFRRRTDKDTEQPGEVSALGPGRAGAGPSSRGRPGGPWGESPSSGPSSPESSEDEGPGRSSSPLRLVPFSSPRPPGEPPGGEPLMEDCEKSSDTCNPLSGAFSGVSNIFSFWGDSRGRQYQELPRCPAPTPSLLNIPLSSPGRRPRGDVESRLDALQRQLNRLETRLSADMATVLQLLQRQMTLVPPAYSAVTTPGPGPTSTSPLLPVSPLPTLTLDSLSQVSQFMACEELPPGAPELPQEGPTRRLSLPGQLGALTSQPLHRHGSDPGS
`Cc1nc2c(cc(Oc3ccc(S(=O)(=O)N4CCOCC4)cn3)c3ccsc32)s1`: the “hERG current change (%, negative = inhibition) at 1uM” value was found to be 5.91%.

Take `CCC(C)(C)n1nnnc1C(c1ccc2ncccc2c1)N1CCCC(C)C1` (centres unmarked): the “hERG current change (%, negative = inhibition) at 1uM” value is recorded as 6.04%.

As for `Cc1ccc(S(=O)(=O)Nc2cc(=O)[nH]c(SCc3ccccc3Cl)n2)cc1`, the “hERG current change (%, negative = inhibition) at 1uM” value is 11.4%.

As to `Cc1ccc(C(=O)Oc2ccc(Br)cc2C(=S)N2CCOCC2)cc1`, the “hERG current change (%, negative = inhibition) at 1uM” value is on record as 9.3%.

As to `CCN(CC)CCCN(C(=O)c1ccc(F)cc1)c1nc(-c2ccc(OC)cc2)cs1`, the “hERG current change (%, negative = inhibition) at 1uM” value was -26.4%.

Regarding `CCNC(=O)c1ccccc1NC(=O)c1cccc(S(=O)(=O)N2CCC(C)CC2)c1`, the “hERG current change (%, negative = inhibition) at 1uM” value is on record as -5.74%.

For `CCOC(=O)C1(CCCc2ccccc2)CCN(C(=O)c2cc(C)nn2CC)CC1`, the “hERG current change (%, negative = inhibition) at 1uM” value is -7.65%.

With `Cc1ccc(C)c(S(=O)(=O)N2CCCOC2CNC(=O)C(=O)NC2CCCC2)c1` (centres unmarked), the “hERG current change (%, negative = inhibition) at 1uM” value was 9.86%.

Take `CCCn1c(SCC(=O)N2CCN(c3ccc(OC)cc3)CC2)nc2c1c(=O)n(C)c(=O)n2C`: the “hERG current change (%, negative = inhibition) at 1uM” value is -19.1%.

With `COc1ccc(NC(=O)C23CC4CC(C2)CC(c2ccccc2)(C4)C3)c(OC)c1`, the “hERG current change (%, negative = inhibition) at 1uM” value was determined as 5.92%.

On to `COc1ccc([N+](=O)[O-])cc1NS(=O)(=O)Cc1ccccc1`, for which the “hERG current change (%, negative = inhibition) at 1uM” value came out at 11%.

On to `COCCNC(=O)CSCc1c(F)cccc1Cl`, for which the “hERG current change (%, negative = inhibition) at 1uM” value was determined as 10.7%.

Regarding `CNC(=O)Cn1c(C)cc(=O)c2cccc(C)c21`, the “hERG current change (%, negative = inhibition) at 1uM” value is reported as 0.817%.

For `Cc1cc(NC(=O)c2ccc(S(=O)(=O)N(C)C)cc2)n(-c2ccccn2)n1`, the “hERG current change (%, negative = inhibition) at 1uM” value was 0.686%.

As for `O=C(COc1ccccc1Br)Nc1ccc2c(c1)OCCCO2`, the “hERG current change (%, negative = inhibition) at 1uM” value was determined as 15.2%.

As to `Cc1ccc(NC(=S)N2CCN(S(C)(=O)=O)CC2)cc1Cl`, the “hERG current change (%, negative = inhibition) at 1uM” value is given as 14.3%.

For the compound `CC1(C)CC(CC(=O)O)(c2ccc(Cl)cc2)CCO1` (centres unmarked), the “hERG current change (%, negative = inhibition) at 1uM” value came out at 5.39%.

Take `O=C1NC(=Nc2ccc3ccccc3c2)S/C1=C/c1ccco1`: the “hERG current change (%, negative = inhibition) at 1uM” value is on record as 9.44%.

Turning to `Cn1cnc([N+](=O)[O-])c1Oc1cccc(O)c1`, the “hERG current change (%, negative = inhibition) at 1uM” value is given as 13.1%.

With `CC(=O)NC(CC(=O)Nc1nccs1)c1ccccc1.O=C(O)C(=O)O` (centres unmarked), the “hERG current change (%, negative = inhibition) at 1uM” value is recorded as 2.59%.

As for `Cc1cc(C)cc(C(=O)N2CCC(CCC(=O)NC3CC3)CC2)c1`, the “hERG current change (%, negative = inhibition) at 1uM” value is given as 0.276%.

Regarding `COc1ccc(NCCc2ccccn2)cc1.Cl`, the “hERG current change (%, negative = inhibition) at 1uM” value is 11.6%.

As to `COc1ccc(C(=O)Nc2cccc(S(C)(=O)=O)c2)cc1OC`, the “hERG current change (%, negative = inhibition) at 1uM” value is given as 14.2%.

`CCOC(=O)C(CC)n1cnc2sc3c(c2c1=O)CCC3` (centres unmarked): the “hERG current change (%, negative = inhibition) at 1uM” value turned out to be 13.5%.

For the compound `CCOC(=O)c1nnn(-c2nonc2N)c1COc1ccccc1`, the “hERG current change (%, negative = inhibition) at 1uM” value worked out at 12.6%.

Regarding `COc1ccc(CN(Cc2cccn2C)S(=O)(=O)c2cccc(C(F)(F)F)c2)cc1`, the “hERG current change (%, negative = inhibition) at 1uM” value worked out at 11.8%.

Regarding `C/C(=N\NC(=O)c1ccn(C)n1)c1ccc(NC(=O)c2cccc(F)c2)cc1`, the “hERG current change (%, negative = inhibition) at 1uM” value amounted to 10.2%.

As to `COc1ccc(OC)c(S(=O)(=O)N2c3ccccc3CC2C)c1` (centres unmarked), the “hERG current change (%, negative = inhibition) at 1uM” value was found to be 10.9%.

Take `COc1ccc(NC2CC(=O)N(c3cc([N+](=O)[O-])ccc3C)C2=O)cc1` (centres unmarked): the “hERG current change (%, negative = inhibition) at 1uM” value is given as 1.81%.

In the case of `CCO[C@H]1OC(C(=O)N2CCN(Cc3ccccc3)CC2)=C[C@@H](c2coc3ccccc3c2=O)[C@@H]1CCCO`, the “hERG current change (%, negative = inhibition) at 1uM” value is reported as 6.14%.

`CCOC(=O)N1CCN(S(=O)(=O)c2ccc3c(c2)oc(=O)n3C)CC1`: the “hERG current change (%, negative = inhibition) at 1uM” value came out at 11.8%.

Take `COc1cc(O)ccc1/C=N/NC(=O)c1ccc([N+](=O)[O-])cc1`: the “hERG current change (%, negative = inhibition) at 1uM” value was 7.63%.

`Cc1cc(OCC(=O)OC(C)(C)C)c2c3c(c(=O)oc2c1)CCC3`: the “hERG current change (%, negative = inhibition) at 1uM” value was 9.43%.

For the compound `COC(=O)CCCC1=CC2=CC(=O)C(C)(OC(=O)C3CCCC3)C(=O)C2=CO1` (centres unmarked), the “hERG current change (%, negative = inhibition) at 1uM” value was found to be 15.1%.

With `O=C(CN1C(=O)/C(=C/c2ccccc2F)Sc2ccccc21)N1CCN(c2ccccn2)CC1`, the “hERG current change (%, negative = inhibition) at 1uM” value is 12.8%.

As for `Cc1ccc(S(=O)(=O)N(C)CC(=O)N2CCN(C(=O)c3ccco3)CC2)cc1.Cl`, the “hERG current change (%, negative = inhibition) at 1uM” value was -29.8%.

As for `COc1ccc(NC(C)=O)cc1NC(C)C(=O)Nc1cc(C(F)(F)F)ccc1N1CCOCC1` (centres unmarked), the “hERG current change (%, negative = inhibition) at 1uM” value is recorded as -13.4%.

As for `O=S(=O)(c1ccccc1Cl)N1CCCC1c1nc(-c2ccc(Cl)cc2)no1` (centres unmarked), the “hERG current change (%, negative = inhibition) at 1uM” value was found to be 15.6%.

As for `O=C(CN1C(=O)NC2(CCCCCCC2)C1=O)NCc1cccs1`, the “hERG current change (%, negative = inhibition) at 1uM” value is reported as -5.26%.

On to `Cc1c(NC(=O)Nc2ccc(Cl)c(Cl)c2)sc(=S)n1C`, for which the “hERG current change (%, negative = inhibition) at 1uM” value was determined as 5.23%.

As for `Cc1c(NC(=S)NNC(=O)CCC(=O)O)c(=O)n(-c2ccccc2)n1C`, the “hERG current change (%, negative = inhibition) at 1uM” value is recorded as -1.32%.

As to `Cc1ccc(N(C(=O)NC2CCCCC2)C2=NCCCCC2)cc1`, the “hERG current change (%, negative = inhibition) at 1uM” value is listed as 20.8%.

Turning to `COc1ccc(CCNC(=O)CCC(=O)c2cccs2)cc1OC`, the “hERG current change (%, negative = inhibition) at 1uM” value amounted to 16.7%.

Take `CCCCOCCCNC(=O)N[C@H](C(=O)O)C(C)CC` (some centres unmarked): the “hERG current change (%, negative = inhibition) at 1uM” value is 6.97%.

Take `COCCN(C(=O)c1ccc(N2CCCC2=O)cc1)c1c(N)n(Cc2ccccc2)c(=O)[nH]c1=O`: the “hERG current change (%, negative = inhibition) at 1uM” value was found to be 9.74%.

As for `COc1ccc2oc(C(=O)OCC(=O)N(C)c3c(N)n(Cc4ccccc4)c(=O)[nH]c3=O)c(C)c2c1`, the “hERG current change (%, negative = inhibition) at 1uM” value was determined as 8.06%.

On to `CCOC(=O)C(CC)Sc1nnc2n1C(C)(C)Cc1ccccc1-2` (centres unmarked), for which the “hERG current change (%, negative = inhibition) at 1uM” value was 4.93%.

Take `O=C(CN1CCCCC1)N1CCN(c2ccccc2)CC1`: the “hERG current change (%, negative = inhibition) at 1uM” value is 3.88%.

In the case of `COc1ccc(N/C(C)=C/C(=O)c2ccccc2)cc1`, the “hERG current change (%, negative = inhibition) at 1uM” value is -1.79%.

Regarding `O=C1/C(=C/c2ccco2)CCc2ccccc21`, the “hERG current change (%, negative = inhibition) at 1uM” value worked out at 5.8%.

`OC(COc1cccc2ccccc12)CN1CCCC1` (centres unmarked): the “hERG current change (%, negative = inhibition) at 1uM” value is recorded as -1.17%.

With `Nn1c(SCc2ccccc2)nnc1-c1ccccn1`, the “hERG current change (%, negative = inhibition) at 1uM” value is 15.1%.

Regarding `CC1(C)CC2(CCO1)N1CC3(C)CN2CC(C)(C1)C3=O` (centres unmarked), the “hERG current change (%, negative = inhibition) at 1uM” value amounted to 0.82%.

For `CCCN(C(=O)CSc1nnnn1C)c1c(N)n(Cc2ccccc2)c(=O)[nH]c1=O`, the “hERG current change (%, negative = inhibition) at 1uM” value is 14.9%.

For the compound `CC1=C(C(N)=O)C(c2cccnc2)n2nc(-c3cccc(Cl)c3)nc2N1` (centres unmarked), the “hERG current change (%, negative = inhibition) at 1uM” value came to 17.7%.

For the compound `COc1ccc(NC(=O)Cc2ccccc2)cn1`, the “hERG current change (%, negative = inhibition) at 1uM” value is -4.62%.
